Paper PMC6075865
No constants are given. Whether binding was seen depends on the method and setting. In cells and extracts the contact can be indirect. Some results given as binding are weak or reduced against the parent protein; the word gives no strength.

Amino acid sequences for entries named in this document (tags omitted).
UniProt P46096: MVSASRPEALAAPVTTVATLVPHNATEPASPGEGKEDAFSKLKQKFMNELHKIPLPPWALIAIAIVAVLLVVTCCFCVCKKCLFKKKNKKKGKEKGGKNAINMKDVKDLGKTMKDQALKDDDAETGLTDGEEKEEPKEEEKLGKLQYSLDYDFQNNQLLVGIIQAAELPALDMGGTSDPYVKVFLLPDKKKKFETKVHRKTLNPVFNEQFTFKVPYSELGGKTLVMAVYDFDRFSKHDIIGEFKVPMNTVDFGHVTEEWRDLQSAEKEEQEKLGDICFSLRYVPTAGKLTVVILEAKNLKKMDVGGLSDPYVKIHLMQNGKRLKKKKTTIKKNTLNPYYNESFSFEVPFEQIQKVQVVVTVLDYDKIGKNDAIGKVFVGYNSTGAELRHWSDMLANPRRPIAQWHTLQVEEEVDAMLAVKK
UniProt P63044: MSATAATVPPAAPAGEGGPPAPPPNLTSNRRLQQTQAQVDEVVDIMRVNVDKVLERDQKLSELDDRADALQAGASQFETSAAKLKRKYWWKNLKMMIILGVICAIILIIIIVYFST
UniProt P60879: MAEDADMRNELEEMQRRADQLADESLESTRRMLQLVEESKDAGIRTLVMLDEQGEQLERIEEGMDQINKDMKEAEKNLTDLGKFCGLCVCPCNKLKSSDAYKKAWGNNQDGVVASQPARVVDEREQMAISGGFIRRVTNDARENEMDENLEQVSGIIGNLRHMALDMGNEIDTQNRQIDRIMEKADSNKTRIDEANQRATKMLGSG

Assays:
[1] = target: T1, scrambled variant of the CpxII CTD peptide with an additional C-terminal cysteine, immobilised; assay: pull-down; peptide immobilised on SulfoLink Coupling Gel (1.0 mg peptide/ml gel, 250 ul beads); Triton X-100 extract of mouse brain homogenate (0.5 mg/ml; 130 mM NaCl, 50 mM HEPES-NaOH, 1 mM EDTA, 2% Triton X-100, 1 mM PMSF, pH 7.3); supernatant and pellet by 12% SDS-PAGE and Western blot; only the target purified
T1 sequence (peptide): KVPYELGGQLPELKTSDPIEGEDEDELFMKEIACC

[2] = target: T2, CpxII CTD peptide (amino acids 101-134) with an additional C-terminal cysteine, immobilised (mouse); assay: as above
T2 sequence (peptide): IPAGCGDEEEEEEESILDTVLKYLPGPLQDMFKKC

Row | Substance | binding [1] | binding [2]
1 | Synaptotagmin I (from UniProt P46096 1-421) | no binding | binds
2 | Synaptobrevin II (from UniProt P63044 1-116) | no binding | binds weakly
3 | Synapsin 1 (from UniProt O88935 1-706) | – | no binding
4 | SNAP25 (from UniProt P60879 1-206) | no binding | binds
